The values that follow come from the supplement of paper PMC4604168 (melanoma cell lines).

The list shows a part of the results. Most values come without repeats; read them as rough.
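Further: cells treated in 1,536-well plates, then fixed and DAPI-stained, with nuclei counted from automated high-throughput microscope images.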

The assay deals with RPMI7951. Nature of the assay: cell count relative to DMSO control; melanoma cells; higher = more viable cells. The following applies: library dose: standard library concentration; 72 h.
Compound `Nc1ncn([C@H]2C[C@H](O)[C@@H](CO)O2)c(=O)n1` [decitabine] + C#Cc1cccc(Nc2ncnc3cc(OCCOC)c(OCCOC)cc23)c1 [erlotinib] (first compound 0.5 µM, partner dose 4 µM) showed a cell count of 69.2%.
The compound `CC(=O)O[C@@]12CO[C@@H]1C[C@H](O)[C@@]1(C)C(=O)[C@H](O)C3=C(C)[C@@H](OC(=O)[C@H](O)[C@@H](NC(=O)OC(C)(C)C)c4ccccc4)C[C@@](O)([C@@H](OC(=O)c4ccccc4)[C@H]21)C3(C)C` [Docetaxel] + OCc1c[nH]c2ccccc12 [Indole-3-carbinol] (first compound 0.0005 µM, partner dose 4 µM) came in with a cell count of 27.3%.
Compound `CO[C@H]1C[C@@H]2CC[C@@H](C)[C@@](O)(O2)C(=O)C(=O)N2CCCC[C@H]2C(=O)O[C@H]([C@H](C)C[C@@H]2CC[C@@H](OCCO)[C@H](OC)C2)CC(=O)[C@H](C)/C=C(\C)[C@@H](O)[C@@H](OC)C(=O)[C@H](C)C[C@H](C)/C=C/C=C/C=C/1C` [everolimus] + COc1cc(Nc2ncc(F)c(Nc3ccc4c(n3)NC(=O)C(C)(C)O4)n2)cc(OC)c1OC [Tamatinib] (first compound 0.1 µM, partner dose 2 µM) had a cell count of 22.6%.
In the case of `Nc1ncn([C@H]2C[C@H](O)[C@@H](CO)O2)c(=O)n1` [decitabine] + CN(C)S(=O)(=O)c1ccc2c(c1)/C(=C/c1cc3c([nH]1)CCCC3)C(=O)N2 [SU6656] (first compound 0.5 µM, partner dose 2 µM) it was 51.9%.
For `CO[C@H]1C[C@@H]2CC[C@@H](C)[C@@](O)(O2)C(=O)C(=O)N2CCCC[C@H]2C(=O)O[C@H]([C@H](C)C[C@@H]2CC[C@@H](OCCO)[C@H](OC)C2)CC(=O)[C@H](C)/C=C(\C)[C@@H](O)[C@@H](OC)C(=O)[C@H](C)C[C@H](C)/C=C/C=C/C=C/1C` [everolimus] + COc1cc2ncnc(Nc3ccc(Oc4ccccc4)cc3)c2cc1OC [SrcI1] (first compound 0.1 µM, partner dose 10 µM) the value was 42.6%; for `CO[C@H]1C[C@@H]2CC[C@@H](C)[C@@](O)(O2)C(=O)C(=O)N2CCCC[C@H]2C(=O)O[C@H]([C@H](C)C[C@@H]2CC[C@@H](OCCO)[C@H](OC)C2)CC(=O)[C@H](C)/C=C(\C)[C@@H](O)[C@@H](OC)C(=O)[C@H](C)C[C@H](C)/C=C/C=C/C=C/1C` [everolimus] + COc1ccc(-c2ccc3c(N4CCOCC4)nc(N4C[C@@H](C)O[C@@H](C)C4)nc3n2)cc1CO [KU0063794] (first compound 0.1 µM, partner dose 0.1 µM), 63.6%; for `CC(=O)c1c(C)c2cnc(Nc3ccc(N4CCNCC4)cn3)nc2n(C2CCCC2)c1=O` [palbociclib] + COc1ccc(Cl)c(Nc2nc3ccccc3nc2NS(=O)(=O)c2cccc(NC(=O)C(C)(C)N)c2)c1 [XL147] (first compound 0.2 µM, partner dose 4 µM), 82.1%.
In the case of `CC(=O)c1c(C)c2cnc(Nc3ccc(N4CCNCC4)cn3)nc2n(C2CCCC2)c1=O` [palbociclib] + COc1ccc2c(c1)CCC1C2CCC2(C)C(NCCCCCCN3C(=O)C=CC3=O)CCC12 [U73122] (first compound 0.2 µM, partner dose 2 µM) it was 56.8%; in that of `Nc1ccn([C@@H]2O[C@H](CO)[C@@H](O)C2(F)F)c(=O)n1` [gemcitabine] + CO[C@@H]1[C@H](N(C)C(=O)c2ccccc2)C[C@H]2O[C@]1(C)n1c3ccccc3c3c4c(c5c6ccccc6n2c5c31)C(=O)NC4 [Midostaurin] (first compound 0.002 µM, partner dose 0.4 µM), 38.6%.
As for `Nc1ccn([C@@H]2O[C@H](CO)[C@@H](O)C2(F)F)c(=O)n1` [gemcitabine] + Cc1nc(Nc2ncc(C(=O)Nc3c(C)cccc3Cl)s2)cc(N2CCN(CCO)CC2)n1 [dasatanib] (first compound 0.002 µM, partner dose 0.02 µM), the cell count turned out to be 40.3%.
For `CC(=O)O[C@@]12CO[C@@H]1C[C@H](O)[C@@]1(C)C(=O)[C@H](O)C3=C(C)[C@@H](OC(=O)[C@H](O)[C@@H](NC(=O)OC(C)(C)C)c4ccccc4)C[C@@](O)([C@@H](OC(=O)c4ccccc4)[C@H]21)C3(C)C` [Docetaxel] + Cc1cc(Nc2cc(N3CCN(C)CC3)nc(/C=C/c3ccccc3)n2)n[nH]1 [ENMD2076] (first compound 0.0005 µM, partner dose 0.2 µM) the value was 23.2%.
